Measured values published in the supplement of paper PMC11417369.
Some of the results follow.

test system: PF3D7_0420300 AP2 domain 1 (GST-tagged); test: gcPBM binding intensity (ln(normalized median fluorescence intensity)); higher = stronger DNA binding
In short: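 DNA-binding domains from P. falciparum, fused to GST and produced in E. coli, were put on an Agilent 4 × 180k double-stranded probe array for 1 h in 1× PBS holding 1% milk, 0.2 mg/ml BSA, 0.5% salmon testes DNA and 0.03% Triton X-100. Probes were primer-extended, 36 bp long and drawn from intergenic genomic regions, with negative controls included. After Alexa488 anti-GST antibody detection and a 488 nm scan, binding intensity was set as the highest Masliner-normalised natural-log median intensity across replicate spots of either probe orientation.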

Row | Sequence | gcPBM binding intensity (ln)
1 | TATATATATATTTTTGGTACAGATATTTTCTTCTCT [XGTACX_site4432] | 9.26
2 | AATATATATATATATTGTACACACATTTATGCATAT [XGTACX_site6856] | 9.62
3 | TTACAACCATAAAATGCATGTAAATGACAAAAAAAA [TGCATGCA_site944] | 9.19
4 | TAAAATTAAATGAAATCATTATTCATTTTTATTTTA [CACACA_negctrl_site1281] | 8.8
5 | ATTCTTTTTTTTTTCTTATATTCTAATCACCACCTT [XGTACX_negctrl_site179] | 9.17
6 | CATATAAATAAACACACACACACATATATATATATA [CACACA_site5309] | 10.1
7 | TTTGGTAAGCGTGTCGCATGTAGAACAAGTCTACAT [TGCATGCA_site577] | 8.89
8 | AATAGGTGCCTTTTTTCACACACATGTCAACTAAAT [CACACA_site8846] | 9.7
9 | ATGAAATTATTATATAAACACACATTTATTTTATTT [CACACA_site8597] | 9.24
10 | AGAAAAAAAAAAAAAAAACACACGGTACATCCAAAG [CACACA_site124] | 9.66
11 | ATCAAATTATAATCATGTACAAATAAAAAAAAAAAA [XGTACX_site313] | 9.2
12 | AAATATCTACAAATATGTACATATTTTTTTTGGCTT [XGTACX_site6301] | 9.17
13 | TATTTTGTCATAGAACGTACTTATAAATATTTTTTT [XGTACX_site8424] | 9.19
14 | ATAGAAGCTGTTGACGAAGAAAAAAAAAAAAAAAAA [CACACA_negctrl_site110] | 8.56
15 | ATCATATCCACCAAATGAATAATATAAAATAATATA [XGTACX_negctrl_site193] | 9.13
16 | AAATAACATAATAAGGGTACATTAATTTCGATAATG [XGTACX_site835] | 9.43
17 | TATATATATATATATGCACACATTTATACAATTTTA [CACACA_site2986] | 9.16
18 | AATATTTTGTTATTTATTTAATCTAATATTACTATC [CACACA_negctrl_site4] | 9.32
19 | ATATATATATAAATATGTACATATATACATATATAC [XGTACX_site2374] | 9.16
20 | AAAAAAAAAAAATACACACAAACACAAATTAAATAA [CACACA_site3809] | 9.88
21 | ATTATAGAATATTGAAGTACAAAATTTAAAATAAGT [XGTACX_site1468] | 9.46
22 | TAGGAAAATTACAAAAGTACTTGGCACATAATAATG [XGTACX_site6005] | 9.36

Row | Sequence | gcPBM binding intensity (ln)
23 | TAGATATTTTTGAAAAGTACAAATTTTTAAAAATTA [XGTACX_site4420] | 8.79
24 | GTATGATTACAAGAAAGTAGTCCACTTTAACAACAA [CACACA_negctrl_site1304] | 9.13
25 | TTATATAATGACAAAAAAAAAAAAAAAAAAAAAAAA [CACACA_negctrl_site1467] | 8.39
26 | TAATTTATCCTATAATGTACTTATAAAATATATCAT [XGTACX_site1460] | 9.02
27 | ATGTACATAAACCGCACACATATAAAAAAATAAATA [CACACA_site5571] | 9.45
28 | ATTCAGAGTATATAAAAATTAATATATACATAATAT [CACACA_negctrl_site1782] | 9.18
29 | AGTCCATTTTATTATTGTACATATTAATTTATATCA [XGTACX_site672] | 9.61
30 | TAAAAATATTATAATGCATGCAAAATATTGTTATAA [TGCATGCA_site244] | 8.99
31 | ATAGTTTTTCCAATTCAAAAAAAAAAAAAAAAAAAA [CACACA_negctrl_site969] | 8.47
32 | AAAGTATAAATAAATACACACATATTTATTTATATA [CACACA_site7375] | 9.5
33 | AACATATGATTAAACTGTACAAGAAAAATATAACAT [XGTACX_site4477] | 9.61
34 | GAGAGGATCATCAATTCACACACATAAAAATGAAGT [CACACA_site9010] | 9.58
35 | TGTTATGAGAACAGCACACAAGCTACATCATATATA [CACACA_site870] | 9.22
36 | TATATATAAGATTGATGTACGATTTTGGTGTCTTAT [XGTACX_site2611] | 9.36
37 | TATTATAGTATATATTGTACATATATATATTTTTTA [XGTACX_site8831] | 9.19
38 | ATAATAATATATAGTACACACAAAAATGGAAGTAAA [CACACA_site3318] | 9.78
39 | TTTCTTTTTAAATAATAATGTATAATAAAAAGTTCA [TGCATGCA_negctrl_site195] | 8.81
40 | TTTGTTTGATATATGTGTACATATATATATTATGCT [XGTACX_site3522] | 9.41
41 | TATAATATGTATATCTGTACATATTTTAAATCTAAT [XGTACX_site2426] | 9.05
42 | AAGTACAATTCATGTATGCACTTTATTATATTTTAT | 9.36
43 | AAGATAAAATAATAAAGTACACATATAAATTGAAAA [XGTACX_site2113] | 9.42
44 | GTAATACCCAAACACACACACATACCCATATATATA [CACACA_site5510] | 10
